# Measured values reported in PubChem BioAssay (NCATS).
# “And” between values parts separate entries of the source, which are not always exact repeats. Equal values may be shown once. Inconclusive results, whose numbers are uncertain, are shown with a selection of clear calls. Potencies beside an inconclusive call are fits to weak or partial responses and may not hold up. The source made the active and inactive calls. The call rests on the fitted dose curve; in most records, active means well fitted cell-killing curve with a large enough effect; inconclusive means small, poorly fitted or top-dose-only effect; inactive means flat fitted curve, though single readings scatter.
# Experiment: qHTS of pediatric cancer cell lines to identify multiple opportunities for drug repurposing: Primary screen for RD cells (AID 1347104); further: nearly all actives have a fitted effect of over 55% in size
# Details: RD rhabdomyosarcoma viability, CellTiter-Glo luminescence, 48 h; series mostly up to 46 µM; activity change, negative = cytotoxic: at the top concentration
# Excerpt: Drug repurposing or repositioning has been offered as a strategy for drug development in oncology programs. This approach has special potential for childhood cancers and other rare or orphan diseases, where the expected return on new drug development has been a disincentive to pharmaceuticals. […] In this project we exploit the poly-pharmacology of drugs to discover new indications via phenotypic screening of a panel of 19 well-characterized cell lines derived from solid tumors seen in children and adolescents. The goal is to identify approved drugs with previously unrecognized anticancer properties that has the potential to reveal new mechanisms and biological processes involved in carcinogenesis or drug resistance. We employed a titration-based paradigm (quantitative high-throughput screening or qHTS), where all compounds were tested at multiple concentrations for their effect on cell viability. Concentration-response curves (CRCs) were derived directly from the primary screen, and both potency and efficacy values were used to identify compounds with robust bioactivity profiles. We screened the NIH Chemical Genomics Center (NCGC) Pharmaceutical Collection (NPC) and Mechanism Interrogation Plate (MIPE) small molecule collections of approved and investigational compounds against these cell lines; and measured metabolically active cells after 48 hours of compound treatment as a proxy for cell viability. […] Assay Submitter: Nathalia J. Martinez, National Center for Advancing Translational Sciences, National Institutes of Health, Rockville, MD, USA; email: natalia.martinez@nih.gov Shen, M et al. Quantitative high-throughput phenotypic screening of pediatric cancer cell lines identifies multiple opportunities for drug repurposing. Oncotarget 2017 Dec 19;9(4):4758-4772. PMID 29435139.
# The cells were obtained from University of North Carolina (UNC), Pediatric Preclinical Testing Program (PPT), and Coriell Institute (CI). qHTS cell viability assay: Cells were assayed in growth media at a density of 500-1,000 cells/well. Five microliters of cells were dispensed into 1,536-well, white, solid-bottom, TC-treated plates (Greiner Bio One) using a multidrop dispenser and incubated at 37 degrees C, 5% CO2, under a humidified atmosphere for 5 hours. Twenty-three nanoliters of compounds and controls (neutral control DMSO or positive control bortezomib at final concentration of 2.3 µM) were subsequently transferred by Kalypsys pintool. For primary screens, the MIPE collection was tested at 11-point dilutions (final concentrations range from 0.78 nM to 46 µM) and the NPC collection at 8-point dilutions (final concentrations range from 0.59 nM to 46 µM). Compounds tested in follow-up screens were assayed at 11-point dilutions. Cells were incubated for 48 hours, followed by addition of 3 µL of CellTiter-Glo (Promega). After a 15 min incubation at room temperature, samples were analyzed for luminescence intensity using a ViewLux High-throughput CCD imager equipped with clear filters.
# Potency means the concentration at half of the fitted maximal effect; tags describe the fitted curve by direction and shape.
Compound,Potency,"activity change, negative = cytotoxic"
N[C@H](CSC(c1ccccc1)(c1ccccc1)c1ccccc1)C(=O)O,"inconclusive: 33.2 µM [cytotoxic, single point]",–
CC(O)=C(C#N)C(=O)Nc1ccc(C(F)(F)F)cc1,"inconclusive: 16.6 µM [cytotoxic, partial curve]",–
CNC1CCCN(c2c(F)cc3c(=O)c(C(=O)O)cn(C4CC4)c3c2OC)C1 (stereo not given),"inconclusive: 16.6 µM [cytotoxic, partial curve]",–
Cc1cc(O)c2ccccc2c1O,"inconclusive: 29.9 µM [cytotoxic, single point]",–
OCCC#Cc1nc(-c2ccc(F)cc2)c(-c2ccncc2)n1CCCc1ccccc1,"inconclusive: 26.4 µM [cytotoxic, partial curve]",–
O=C(O)c1ccccc1C(=O)Nc1ccc(-c2ccccc2)cc1,–,inactive: -6.19%
c1ccc2[nH]c(-c3cscn3)nc2c1,"inconclusive: 26.4 µM [cytotoxic, partial curve]",–
CC[C@]1(O)C[C@@H]2CN(CCc3c([nH]c4ccccc34)[C@@](C(=O)OC)(c3cc4c(cc3OC)N(C=O)[C@@H]3C45CCN4CC=C[C@](CC)([C@H]45)[C@@H](OC(C)=O)[C@]3(O)C(=O)OC)C2)C1 (stereo not given in full),"inconclusive: 2.96 µM [cytotoxic, partial curve, poor fit]",–
O=c1cc(N2CCOCC2)oc2c(-c3ccccc3)cccc12,"inconclusive: 4.69 µM [cytotoxic, full curve]",–
Oc1ccc(C=Cc2cc(O)cc(O)c2)cc1,"inconclusive: 18.7 µM [cytotoxic, partial curve]",–
O=C(Nc1ccc(OC(F)(F)F)cc1)c1sccc1NCc1ccnc2ccccc12,"inconclusive: 20.9 µM [cytotoxic, single point]",–
CO[C@H]1O[C@@H]2O[C@@]3(C)CC[C@@H]4[C@@H](C)CC[C@@H]([C@H]1C)[C@@]24OO3,"inconclusive: 2.35 µM [cytotoxic, partial curve]",–
CCCCCCCCOc1ccccc1C(=O)Nc1ccc(C(=O)OCC[N+](C)(CC)CC)cc1,"inconclusive: 26.4 µM [cytotoxic, single point] and inconclusive: 33.5 µM [cytotoxic, single point]",–
Nc1ccc([N+](=O)[O-])cc1O,"inconclusive: 38.6 µM [cytotoxic, partial curve, poor fit]",–
Oc1ccc(C2CCN(c3ccnc4ccccc34)CC2)cc1O,"inconclusive: 16.6 µM [cytotoxic, single point]",–
OCc1cc(C(O)CNCCCCCCOCCCCc2ccccc2)ccc1O (stereo not given),"inconclusive: 29.9 µM [cytotoxic, single point]",–
NC(=O)C(c1ccccc1)(c1ccccc1)[C@@H]1CCN(CCc2ccc3c(c2)CCO3)C1,–,inactive: 4.65%
O[C@@H](COc1cccc2ncccc12)CN1CCN(C2c3ccccc3[C@@H]3[C@H](c4ccccc42)C3(F)F)CC1 (stereo not given in full),active: 18.7 µM,–
O=C(Nc1ccc([N+](=O)[O-])cc1Cl)c1cc(Cl)ccc1O,active: 3.26 µM and active: 1.48 µM,–
O=c1cc(CN2CCOCC2)occ1OCCCCCSc1ccnc2cc(C(F)(F)F)ccc12,"inconclusive: 20.9 µM [cytotoxic, partial curve, poor fit]",–

Compound,Potency,"activity change, negative = cytotoxic"
O=C(NCC1CCCCN1)c1cc(OCC(F)(F)F)ccc1OCC(F)(F)F (stereo not given),"inconclusive: 1.05 µM [cytotoxic, full curve]",–
O=C(N[C@@H](c1ccccc1)[C@@H]1CCCCN1)c1cccc(C(F)(F)F)c1Cl,"inconclusive: 18.7 µM [cytotoxic, partial curve, poor fit]",–
COc1ccc(C=CC(=O)Nc2ccccc2C(=O)O)cc1OC,"inconclusive: 37.2 µM [cytotoxic, single point]",–
O=c1oc2cc(O)ccc2s1,"inconclusive: 20.9 µM [cytotoxic, partial curve, poor fit]",–
CN1CCN(C2Cc3ccccc3Sc3ccc(Cl)cc32)CC1 (stereo not given),"inconclusive: 29.9 µM [cytotoxic, single point]",–
COc1cc(Nc2ncc(F)c(Nc3ccc4c(n3)NC(=O)C(C)(C)O4)n2)cc(OC)c1OC,"inconclusive: 2.09 µM [cytotoxic, full curve]",–
CCC(=C(CC)c1ccc(O)cc1)c1ccc(O)cc1,"inconclusive: 18.7 µM [cytotoxic, single point]",–
C[C@@H](O[C@H]1OCCN(Cc2n[nH]c(=O)[nH]2)[C@@H]1c1ccc(F)cc1)c1cc(C(F)(F)F)cc(C(F)(F)F)c1,"inconclusive: 33.2 µM [cytotoxic, single point]",–
[O-][n+]1ccccc1SSc1cccc[n+]1[O-],active: 0.0731 µM,–
CCCSc1ccc2nc(NC(=O)OC)[nH]c2c1,"inconclusive: 1.33 µM [cytotoxic, full curve]",–
O=C(Nc1cc2cc[nH]c2cn1)c1ccccc1,active: 14.8 µM,–
CN(Cc1cc(Br)cc(Br)c1N)C1CCCCC1,inactive,–
CCC(C)SSc1ncc[nH]1 (stereo not given),active: 26.4 µM,–
CC(C)[C@H](CO)Nc1nc(Nc2ccc(C(=O)O)c(Cl)c2)c2ncn(C(C)C)c2n1,"inconclusive: 41.8 µM [cytotoxic, single point]",–
COc1ccc(-c2cc(=O)c3c(O)cc(O)cc3o2)cc1O,"inconclusive: 13.2 µM [cytotoxic, partial curve]",–
CC(C)(C)OC(=O)CN(Cc1ccc(Cl)cc1)Cc1ccc([N+](=O)[O-])s1,"inconclusive: 29.6 µM [cytotoxic, partial curve, poor fit]",–
Cc1ccc(C(=O)Nc2ccc(S(=O)(=O)O)c3cc(S(=O)(=O)O)cc(S(=O)(=O)O)c23)cc1NC(=O)c1cccc(NC(=O)Nc2cccc(C(=O)Nc3cc(C(=O)Nc4ccc(S(=O)(=O)O)c5cc(S(=O)(=O)O)cc(S(=O)(=O)O)c45)ccc3C)c2)c1,inactive,–
Nc1ccc(O)c(C(=O)O)c1,–,inactive: 3.96%
CO[C@H]1C[C@@H]2CC[C@@H](C)[C@@](O)(O2)C(=O)C(=O)N2CCCC[C@@H]2C(=O)O[C@H]([C@H](C)C[C@@H]2CC[C@H](OCCO)[C@H](OC)C2)CC(=O)[C@H](C)C=C(C)[C@@H](O)[C@@H](OC)C(=O)[C@H](C)C[C@H](C)C=CC=CC=C1C,"inconclusive: 5.26 µM [cytotoxic, partial curve]",–
O=c1c(O)c(-c2ccc(O)c(O)c2)oc2cc(O)cc(O)c12,"inconclusive: 29.6 µM [cytotoxic, partial curve, poor fit]",–
